Data taken from the RNAGym collection of RNA variant scans (doi:10.7554/elife.90254).
The source gives no read counts; variants with many changes may rest on few reads.

B1: LINE1-mini (parent)
chain: GGCAGAGCUCAACACAGCGUGGCAAAGUGGCUGUGGCUAGACUGCC

Variants of: B1
Assay: self-cleavage, relative activity (ratio to wild type); higher = more cleavage; in vitro, sequencing; the parent is a self-cleaving ribozyme

| Variant | self-cleavage |
| --- | --- |
| G17C G22C A26C C42U C45G | 0.08 |
| C3A A12U C23U G35U | 0.05 |
| C10A A12G U38G | 0 |
| C8U U28A C31U | 0.18 |
| G5U C10U G17C A24C G30U | 0.02 |
| A6U A11G G29A | 0.02 |
| G27U U38G A39U C46U | 0.05 |
| G2C C10U C31A C46A | 0.01 |
| A16G U20A G29A A39U | 0.63 |
| G7A C31U U38G G44A | 0.02 |
| G5A G19U U20G U32A | 0.08 |
| C18G U28A C31A | 0.09 |
| G21A G22C G29U G35U G44C C45G C46U | 0.01 |
| A6G G21C A24C G36U C46A | 0 |
| A6G G7C C31U U32C G35A G40A U43C | 0.09 |
| C10G G22U C31A G44A | 0.01 |
| A26U U34A A39U | 0.02 |
| A11U G19A A26C G33U | 0 |
| A4C G29A C31U | 0.09 |
| G22C A24U G36U U38G C46A | 0.02 |
| G29U G30U U32G G35A C37A U43A | 0.1 |
| C18A C37A C42A | 0.04 |
| G27U C37A C46A | 0.04 |
| C3G C23G U28C | 0.11 |

| Variant | self-cleavage |
| --- | --- |
| C8A G36A G44C | 0.11 |
| G7U A26C U38G | 0.02 |
| C18U G27A G33A | 0.01 |
| G5A G30C U43G | 0.02 |
| C3G A16U A24G | 0.04 |
| A16C G40A C45G | 0.01 |
| C3G A4C U38A G40A | 0.1 |
| G1U A4C G30A U32C | 0.01 |
| A12C C23G C37U | 0.02 |
| G1U C8U A26G C46A | 0.08 |
| A25U G36U A39U | 0.12 |
| C8G C10G G21A A41C | 0.02 |
| G5C G27C A41C | 0.05 |
| G1A G29A G36U G44C | 0.21 |
| C23U G29C C46A | 0.47 |
| G1U G21U G40U | 0.06 |
| G7A C15G A39G C45U | 0.12 |
| A12U U38C U43A | 0.01 |
| C13U A24U U38A | 0.27 |
| C8G U20A A26G G33C | 0.03 |
| G21U G30C G33A | 0.09 |
| G30A A39U A41U C46U | 0.17 |
| G1U G27U U34G A41C | 0.01 |
| A6U C8A A25G U43A | 0.04 |

| Variant | self-cleavage |
| --- | --- |
| G21U G22U C23A A39U | 0.21 |
| C23U G30C G33C C45G | 0.02 |
| G2C A16G A25U | 0.23 |
| U9G A14G C23U G27A | 0.06 |
| G30C G35C C37U | 0.05 |
| C8A G17U A26C | 0.24 |
| G2C C18U A41C | 0.03 |
| A6C C18G U20C G21U | 0.22 |
| C10G C15A C46U | 0.05 |
| G2C A12C G22C | 0.03 |
| A25G U32C C46G | 0.01 |
| G5U U28G C31G C45A | 0.01 |
| G1U G27A U43C | 0.05 |
| G17C C31U A39G | 0.03 |
| G22U A24C A41C C45A C46U | 0.06 |
| A11U C13G C37A | 0.03 |
| C10G A11U C18U A25U G29U A39U | 0.02 |
| C3U G22A U34G | 0.05 |
| A14U G29A C46A | 0.6 |
| C3U C10U C18G | 0.05 |
| C3U G21C A25G A39G | 0.18 |
| C10A A14C G40A | 0.02 |
| C10A C31G G40U | 0 |
| G1U G7A G44C | 0.06 |

| Variant | self-cleavage |
| --- | --- |
| G7A A25G G40U | 0.03 |
| C8A G33U C46A | 0.28 |
| G5C U9G G17A U38C G40A | 0.01 |
| C23G G36U A39U C42A | 0 |
| G2U A4G A14G | 0.05 |
| G17A G29A C37G | 0.02 |
| A4G A6U G19U C46A | 0.32 |
| C13U G35C U43A C45U | 0.04 |
| G17C U34G G40A | 0.05 |
| C15A G21C G22U A25U G35C | 0.03 |
| G1A A26C C45A | 1.38 |
| A24U A25U A39C | 0.31 |
| G5U G22A A39G | 0.04 |
| A11G C18A G30C G40C A41U | 0 |
| A26U U32A G44C | 0.05 |
| C8G C15U C23U G27C U32C | 0.02 |
| C3A U38G C46A | 0.03 |
| A6U C15A G17U G29C | 0.02 |
| G2U A16U A25U | 0.01 |
| G2C C3U C37U C46A | 0.05 |
| C15A G30U C42U | 0.02 |
| A6G G7A A14G A39G | 0 |
| C10U A12U C15U C31G U32C C42U | 0.02 |
| G2A U20C U28G | 0.32 |

| Variant | self-cleavage |
| --- | --- |
| C10A G19U A41G C45U | 0.01 |
| G7C C8A A25G G30U C37U C45U | 0.08 |
| G1U G2A U38C G44A | 0.22 |
| C8A A16U G36C | 0.14 |
| G1C G2U C10U C15A G27C G36U A41C C46U | 0 |
| A6G A16C U32C G35U G40U C42A | 0.02 |
| C8U U9A A41U C46A | 0.11 |
| U20G G21U C31U | 0.08 |
| C18A G19A G35C | 0.15 |
| C10U A11G A41C | 0.01 |
| A4U A6G U43C | 0.06 |
| C3U A6C G7A C15U G17C C18A | 0.36 |
| A12C A24G U32G G36U | 0.01 |
| G7U C10A U28C G33A G35C A39U | 0.02 |
| C15U A39C C45G | 0.09 |
| A14U A39U C42A | 0.14 |
| G5U G30C C37U | 0.03 |
| C15A G22A G35A | 0.05 |
| C8G C10U C31U G36U C45U | 0.04 |
| G7U G21C A24U G29U | 0.27 |
| C13U U38C C42A | 0.06 |
| C8G C18G G27A | 0.04 |
| C8U G36C A41U | 0.18 |
| C3U G22C U34A | 0.07 |

| Variant | self-cleavage |
| --- | --- |
| C15U G19A C37U | 0.02 |
| G1U G2C A4G A14U G19U U43A | 0.06 |
| A26C U28A A39C C46U | 0.42 |
| G5A C10A C15U C37A | 0.01 |
| G5C C13U A14U U38C | 0.02 |
| A11G G17U C18A U28C G29U G33U G44A | 0.02 |
| C3U G17U G19C G27U C37U A39G | 0.18 |
| G29U G36C A39C | 0.02 |
| C23U U38A U43A | 0.05 |
| A11C G29U G30A | 0.02 |
| G21U G22U U43A | 0.02 |
| G1A C8U G17U G30C A39U | 0.7 |
| C10A A12G G40C | 0.01 |
| C10G C23A U32C U34G C45A | 0.01 |
| C3G A25U A39U | 0.26 |
| G5C A14C G35C | 0.06 |
| C23A U32G G44U | 0.04 |
| G7A G22C A25G C46A | 0.08 |
| A4C C10A A11G U34C G44U | 0.01 |
| C3A A11C G22A | 0.14 |
| C3G G17A G29U C31U | 0.06 |
| G7C A11U A16U C18U A41U | 0.02 |
| G7A G22A G33A | 0.1 |
| G1C U9C C23G G36A C45U | 0.03 |

| Variant | self-cleavage |
| --- | --- |
| C23U G30C U32C C42U U43G | 0.02 |
| A12C C15U U38C | 0.02 |
| C10A A26U U34A G35C | 0 |
| G1U U9G G19A G21A U38A | 0.06 |
| G1C A12G U43A C46A | 0.04 |
| C8A C23A C37G | 0.03 |
| G21C G30C U32C U34G | 0.02 |
| G17C A26U G27C | 0.3 |
| G2U G22U G30A C31G A39U | 0.01 |
| A14U A24C G29A C31U A41U | 0.61 |
| C18G U20A G22C G27A G40A U43C | 0.05 |
| C15A A16U G36C A39G U43A | 0.06 |
| U9C G21A G40A U43C C46A | 0.01 |
| A11G A16C G27U C31A C37A | 0.02 |
| C13A C15A G19U G21U G22A | 0.06 |
| A11C U20A G27U A39G | 0.02 |
| C3G A4U G22U A41C | 0.05 |
| A24U A26C U34A | 0.13 |
| C10G G29U U32C | 0.03 |
| G17U G33C G40A C45G | 0.03 |
| C3A A6U G7A U28A | 0.14 |
| C13A G17U C18G G27U G35C C37G U38A | 0.2 |
| A4C A11C G30A C37G C45G | 0 |
